Test results published in PubChem BioAssay AID624417 (National Center for Advancing Translational Sciences (NCATS), 2012).
Out of some 410,000 compounds screened, about 6,400 (1.6%) were called active. The shares of active, inactive and inconclusive entries below differ from those in the screen. Calls come from the whole dose curve; as a rule, active = well fitted inhibition curve with a large enough effect; inconclusive = small, poorly fitted or top-dose-only effect; inactive = no such curve, though single readings can be large or run the other way. Potencies of inconclusive entries are doubtful fits and often do not repeat.

Target: Glucagon-like peptide 1 receptor (Homo sapiens) (UniProt P43220)
Chain of UniProt P43220 (P43220 whole entry, looked up): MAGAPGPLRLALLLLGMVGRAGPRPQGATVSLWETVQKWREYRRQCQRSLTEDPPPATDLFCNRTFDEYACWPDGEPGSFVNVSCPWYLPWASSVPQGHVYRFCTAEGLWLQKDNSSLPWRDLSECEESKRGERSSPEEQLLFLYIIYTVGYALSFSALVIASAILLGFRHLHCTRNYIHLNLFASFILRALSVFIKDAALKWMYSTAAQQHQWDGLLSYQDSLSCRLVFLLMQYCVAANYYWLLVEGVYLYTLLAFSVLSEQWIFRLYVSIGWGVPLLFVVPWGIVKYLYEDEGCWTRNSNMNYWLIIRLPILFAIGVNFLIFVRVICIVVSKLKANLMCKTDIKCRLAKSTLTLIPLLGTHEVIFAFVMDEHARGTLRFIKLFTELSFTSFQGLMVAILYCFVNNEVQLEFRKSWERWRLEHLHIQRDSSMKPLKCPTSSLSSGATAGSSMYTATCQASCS
Test: qHTS of GLP-1 Receptor Inverse Agonists (Inhibition Mode); note: nearly all actives have a fitted effect of over 55% in size
Details: HEK293 GLP-1R CRE-luciferase, luminescence, 24 h, GLP-1R form is constitutively active; series mostly up to 38.3 µM
Summary of the method: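 Readout was luciferase luminescence, measured 12 min after detection reagent at room temperature. Beforehand, GLP-1R reporter HEK293 cells had sat 12 h, then received compounds for 24 hr at 37 deg C.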
Potency is the fitted concentration of half-maximal effect; tags give direction and shape of the fitted curve.

Potency, inactive:
COc1ccc(-c2nnc(SCC(=O)Nc3ccc(C)c(C)c3)s2)cc1, COc1ccc(S(=O)(=O)N2CCN(Cc3nc4ccc(C)cc4o3)CC2)cc1, Cc1cnc(C(=O)Nc2ccc(S(=O)(=O)N(C(C)C)C(C)C)cc2)cn1, CN1CC(=O)N(CC(=O)Nc2ccc(N3CCOCC3)cc2)C1=O, COCCCNC(=O)c1ccc2c3c(onc13)-c1ccccc1C2=O, O=C1CCc2cc(S(=O)(=O)NC(C(=O)Nc3cccc(F)c3)c3ccccc3)ccc2N1 (stereo not given), CN(CC(=O)Nc1ccc(F)cc1)C(=O)CSc1ncccn1, Cc1cccc(/C=N/c2sc3c(c2C(=O)OC(C)(C)C)CCN(C)C3)c1O, CN(C)c1ccc(N=Nc2ccc(S(N)(=O)=O)cc2)cc1, COc1ccc(/C=C2\SC(=NCc3ccccc3)NC2=O)cc1, Clc1ccc(-c2csc(N/N=C/c3cccnc3)n2)c(Cl)c1

Potency, inconclusive:
O=C(Nc1csc([N+](=O)[O-])c1)Nc1ccccc1Cl 14.1 µM [inhibitor, single point], COc1cc(Nc2nc(SCc3ccccc3Cl)nc3ccccc23)cc(OC)c1 28.2 µM [inhibitor, single point], O=C(/C=C/c1ccccc1)N1CCN(c2c(Cl)cccc2[N+](=O)[O-])CC1 11.2 µM [inhibitor, partial curve, poor fit], COc1ccc(C(=O)/C=C/c2cn(CC(O)CN3CCc4ccccc43)c3ccccc23)cc1 (stereo not given) 8.91 µM [inhibitor, partial curve, poor fit], CCOc1cccc2sc(N(CCN(C)C)C(=O)c3cc4ccccc4cc3OC)nc12 5.62 µM [inhibitor, full curve, poor fit], CCCN1C(=O)c2cc(C(=O)Nc3ccccc3C)ccc2C1Nc1ccccc1C (stereo not given) 28.2 µM [inhibitor, single point], COc1ccc(CN(C)C(=O)C(Cc2ccccc2)NC(=O)c2ccccc2)c(OC)c1OC (stereo not given) 28.2 µM [inhibitor, single point], Cc1cccc(NC(=S)NCc2ccco2)n1 28.2 µM [inhibitor, single point], N#C/C(=N\Nc1cccc(C(F)(F)F)c1)C(=O)c1ccsc1 7.08 µM [inhibitor, partial curve, poor fit], CCOc1ccc2nc(SCC(=O)NC(=O)NCc3ccco3)sc2c1 11.2 µM [inhibitor, single point], O=C(CSc1nnc(COc2ccc(Cl)cc2)o1)Nc1nccs1 11.2 µM [inhibitor, partial curve, poor fit], CCOc1ccc(N2C(=O)c3[nH]nc(-c4ccc(OC)cc4)c3C2c2cccs2)cc1 (stereo not given) 22.4 µM [inhibitor, single point], COC(=O)CSc1nnc(-c2ccccc2O)n1-c1ccc(C)cc1 10 µM [inhibitor, partial curve, poor fit], COc1ccc(-c2[nH]ncc2CN(Cc2nccn2C)C(C)C)c(F)c1 28.2 µM [inhibitor, single point], O=c1[nH]c(/C=C/c2ccccc2F)nc2ccccc12 1.58 µM [inhibitor, full curve, poor fit], O=c1[nH]c2ccccc2nc1C(Nc1ccccc1)c1ccccc1 (stereo not given) 6.31 µM [inhibitor, partial curve], COc1ccc(/C=C\C(=O)O[C@@H]2C(O)C(O[C@@H]3OC(C)[C@H](O[C@@H]4OCC(O[C@H]5O[C@H](CO)[C@@H](O)C(O)C5O)C(O)C4O)C(O)C3O)[C@H](OC(=O)[C@]34CCC(C)(C)C[C@@H]3C3=CCC5[C@@]6(C)CC(O)C(O[C@@H]7OC(CO)C(O)[C@H](O)[C@H]7O)[C@@](C)(C(=O)O)C6CC[C@@]5(C)[C@]3(CO)CC4)O[C@H]2C)cc1 (stereo not given in full) 28.2 µM [inhibitor, single point], COc1ccc(NC(=O)CSc2nnc(Cc3cccn3C)n2-c2ccc(F)cc2)cc1 10 µM [inhibitor, single point], O=C(CSc1nnc(CNC(=O)C23CC4CC(CC(C4)C2)C3)n1-c1ccccc1)Nc1ccc(F)cc1 28.2 µM [inhibitor, single point], CCCCOc1ncnc2c1[nH]c1ccccc12 10 µM [inhibitor, single point], CSCCC(c1nnnn1Cc1ccccc1)N1CCN(C/C=C/c2ccccc2)CC1 (stereo not given) 22.4 µM [inhibitor, single point], O=C(c1ccc(=O)n(Cc2ccccc2)n1)N1CCN(C/C=C/c2ccccc2)CC1 28.2 µM [inhibitor, single point], C[C@@H](NC(=O)Cn1cnc2c(NCc3ccccc3)ncnc21)c1cccc2ccccc12 14.1 µM [inhibitor, partial curve, poor fit], COc1cccc(C(=O)NC(C)c2ccc(-c3ccccc3)cc2)c1OC (stereo not given) 15.8 µM [inhibitor, single point], CCn1ncc(Br)c1C(=O)Nc1ccc(C(=O)OC(C)C)cc1 28.2 µM [inhibitor, single point], COc1ccc(-c2[nH]ncc2-c2ccc3c(c2)OCCO3)c(O)c1 1 µM [inhibitor, full curve, poor fit], CN(Cc1ccccc1)c1ccc(-c2nc(-c3ccncc3)no2)cc1[N+](=O)[O-] 0.891 µM [inhibitor, full curve], O=C(NCCC1=CCCCC1)C1CCN(C(=O)N2CCOc3ccc(Cl)cc32)CC1 3.98 µM [inhibitor, single point], CCN1CCN(c2cc(C)c3cc(NC(=S)NCCCOC)ccc3n2)CC1 3.98 µM [inhibitor, partial curve]
